Laboratory results reported in PubChem BioAssay AID1768 (National Center for Advancing Translational Sciences (NCATS), 2009).
Screen size: about 270,000 compounds; about 620 (0.23%) were called active. The inconclusive results got no clear call from the source; some entries with a clear call stand among them for comparison. The call rests on the fitted dose curve; in most records, active means well fitted inhibition curve with a large enough effect in the polarisation, with a control signal flat (not every such curve was filed as active); inconclusive means small, poorly fitted or top-dose-only effect, or effect the other way, or a change in a side signal; inactive means no such curve, though single readings can be large or run the other way; the % refers to the polarisation. Where the call is inconclusive, the potency comes from a doubtful curve fit. A note “side channel” means that the fit belongs to a control or component signal, not to the main read-out.
Potency means the concentration at half of the fitted maximal effect; tags describe the fitted curve by direction and shape or compound fluorescence and quenching.
Wherever FP activity change, negative = inhibition is given: % of control where 0% means no effect.

What follows are molecules tested against Menin (Homo sapiens) (UniProt O00255) (assay: qHTS Assay for Inhibitors Targeting the Menin-MLL Interaction in MLL Related Leukemias: Competition With Texas Red Labeled MLL-derived Mutant Peptide). Conditions: fluorescence polarization; FP activity change, negative = inhibition: at 61.6 µM (top of the series).
UniProt O00255, sequence (O00255 whole entry, looked up): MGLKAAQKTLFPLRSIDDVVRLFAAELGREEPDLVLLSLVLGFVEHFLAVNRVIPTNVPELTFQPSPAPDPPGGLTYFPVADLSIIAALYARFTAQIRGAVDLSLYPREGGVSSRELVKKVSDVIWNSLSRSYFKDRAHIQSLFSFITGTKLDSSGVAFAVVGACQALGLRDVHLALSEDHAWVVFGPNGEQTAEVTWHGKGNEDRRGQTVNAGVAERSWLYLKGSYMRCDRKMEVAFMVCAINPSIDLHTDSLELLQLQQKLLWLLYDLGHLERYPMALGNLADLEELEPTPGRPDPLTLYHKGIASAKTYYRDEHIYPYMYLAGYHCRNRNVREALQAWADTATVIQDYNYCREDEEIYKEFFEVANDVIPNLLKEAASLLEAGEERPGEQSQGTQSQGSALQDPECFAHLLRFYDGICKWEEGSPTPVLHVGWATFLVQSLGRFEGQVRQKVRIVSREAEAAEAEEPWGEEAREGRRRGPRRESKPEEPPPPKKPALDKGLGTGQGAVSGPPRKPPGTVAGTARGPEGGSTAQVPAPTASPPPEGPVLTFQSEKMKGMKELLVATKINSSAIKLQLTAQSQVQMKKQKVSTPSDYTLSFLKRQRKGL
In the case of `CC1CCN(CC(=O)Nc2ccccc2-c2ccccc2)CC1`, the Potency is reported as inconclusive: 17.8 µM [fluorescent, side channel, partial curve].
`Cc1ccc(-c2nn3c(C)nnc3c3ccccc23)cc1S(=O)(=O)N1CCN(CCO)CC1` was tested, and the Potency was inconclusive: 10 µM [inhibitor, partial curve].
For `CN(Cc1cnccn1)Cc1ccccc1OCC(O)CN1CCc2ccccc2C1` (configuration not stated), the Potency was inconclusive: 12.6 µM [inhibitor, partial curve].
For `O=C1C2Sc3[nH]c(=O)sc3C(c3ccccc3)C2C(=O)N1c1ccc(Cl)cc1` (configuration not stated), the Potency was inconclusive: 14.1 µM [quencher, side channel, partial curve].
In the case of `CCOC(=O)c1ccccc1NC(=O)N1CCn2c(C)ccc2C1CC` (configuration not stated), the Potency is reported as inconclusive: 22.4 µM [inhibitor, single point].
`COc1ccc(-c2cc(C(F)(F)F)nc(-n3cc(Br)cn3)n2)cc1` was tested, and the “FP activity change, negative = inhibition” value was inactive: 4.92%.
`O=C(COc1ccccc1[N+](=O)[O-])N/N=C/c1ccc(OC(=O)c2ccco2)cc1` was tested, and the Potency was inconclusive: 7.08 µM [quencher, side channel, single point].
For `Cn1nc(C(=O)OCc2ccccc2F)c2ccccc2c1=O`, the Potency was inconclusive: 39.8 µM [inhibitor, single point].
In the case of `Oc1ccc2c(c1)OCC1(O)Cc3cc(O)c(O)cc3C21` (configuration not stated), the Potency is reported as inconclusive: 39.8 µM [fluorescent, side channel, single point].
`c1cc2c3c(cccc3c1)NC(c1ccc3c(c1)OCO3)N2` was tested, and the Potency was inconclusive: 14.1 µM [quencher, side channel, partial curve].
In the case of `COc1ccccc1-n1cc(-c2ccc(Br)cc2)[nH]c1=S`, the Potency is reported as inconclusive: 0.316 µM [inhibitor, full curve, poor fit].
With `Cc1cccc(C)c1NC(=O)CCCSc1nnc(-c2ccco2)n1-c1ccccc1` the Potency was inconclusive: 10 µM [fluorescent, side channel, partial curve].
In the case of `CS(=O)(=O)Nc1ccccc1C(=O)Nc1cc2c(cc1C(=O)O)OCCCO2`, the Potency is reported as inconclusive: 28.2 µM [quencher, side channel, partial curve].
With `CO[C@]12C(COC(N)=O)C3=C(C(=O)C(C)=C(N)C3=O)N1CC1NC12` (some centres not stated) the Potency was inconclusive: 35.5 µM [quencher, side channel, partial curve].
In the case of `CCOC(=O)c1cnc2c(OC)cccc2c1N1CCN(c2ccccn2)CC1`, the Potency is reported as inconclusive: 5.01 µM [fluorescent, side channel, full curve].
With `CC1CCN(CCCCOc2ccccc2-c2ccccc2)CC1` the Potency was inconclusive: 22.4 µM [inhibitor, single point].
`Cc1ccccc1NC(=O)c1ccccc1NS(=O)(=O)c1cccc2cccnc12` was tested, and the Potency was inconclusive: 35.5 µM [inhibitor, single point].
With `Cc1ccccc1C(=O)Oc1cccc2c(O)cccc12` the Potency was inconclusive: 22.4 µM [quencher, side channel, partial curve].
`COc1ccc(NC(=O)Cn2c(=O)n(-c3ccccc3)c(=O)c3oc4ccccc4c32)c(OC)c1` was tested, and the Potency was inconclusive: 22.4 µM [fluorescent, side channel, partial curve].
In the case of `COc1ccc(/C=C/C(=O)C23CC4CC(CC(C4)C2)C3)cc1CN1CCOCC1`, the Potency is reported as inconclusive: 7.94 µM [fluorescent, side channel, partial curve].
In the case of `Fc1cccc(CN2CCSCC2)c1`, the Potency is reported as inconclusive: 0.631 µM [fluorescent, side channel, full curve, poor fit].
For `Cc1ccc(N2C(=O)CC(NNc3nc4ccccc4s3)C2=O)cc1C` (configuration not stated), the Potency was inconclusive: 22.4 µM [quencher, side channel, partial curve].
In the case of `NC(=O)c1ccccc1NS(=O)(=O)c1ccc2c(c1)OCCO2`, the “FP activity change, negative = inhibition” value is reported as inactive: -0.715%.
`Cc1ccccc1CN(C)CC(=O)Nc1c(C)cccc1C(C)C` was tested, and the Potency was inconclusive: 7.94 µM [fluorescent, side channel, partial curve].
In the case of `O=C(CN(C(=O)CNS(=O)(=O)c1ccccc1)c1ccc2c(c1)OCCO2)NCc1ccco1`, the Potency is reported as inconclusive: 12.6 µM [inhibitor, partial curve].
With `CCOc1ccc2ccccc2c1/C=N/NC(=O)CNC(=O)c1ccccc1O` the Potency was inconclusive: 20 µM [quencher, side channel, single point].
For `CN(C)/N=C/c1ccc(Sc2ccccc2[N+](=O)[O-])o1`, the Potency was inconclusive: 31.6 µM [quencher, side channel, partial curve].
In the case of `COc1ccc(C(=O)Nc2cc(OC)c(Cl)cc2Cl)cc1`, the Potency is reported as inconclusive: 31.6 µM [inhibitor, single point].
With `CCC1(c2ccc(Cl)cc2)NC(=S)N(c2ccccc2)N1` (configuration not stated) the Potency was inconclusive: 15.8 µM [quencher, side channel, partial curve].
In the case of `COc1ccc(Br)cc1C(=O)Nc1ccccc1N1CCN(C(=O)c2ccccc2)CC1`, the “FP activity change, negative = inhibition” value is reported as inactive: -6.4%.
With `Cn1c(-c2c(N)n(CCc3ccccc3)c3nc4ccccc4nc23)nc2ccccc21` the Potency was inconclusive: 12.6 µM [quencher, side channel, partial curve].
`CCOC(=O)c1ncc2[nH]c3cccc(OC(C)C)c3c2c1C` was tested, and the “FP activity change, negative = inhibition” value was inactive: 31.4%.
In the case of `CC(C)N(C(=O)COC(=O)CNS(=O)(=O)c1ccccc1F)c1ccccc1`, the Potency is reported as inconclusive: 14.1 µM [fluorescent, side channel, partial curve].
`Cc1ccc(NC(=S)NCc2ccc3[nH]c4c(c3c2)CCCC4)cc1` was tested, and the Potency was inconclusive: 31.6 µM [quencher, side channel, partial curve].
For `O=C1CC(c2ccco2)CC2=C1C=Nc1ccccc1N2` (configuration not stated), the Potency was inconclusive: 39.8 µM [quencher, side channel, single point].
With `Cc1ccc2occ(/C=N/NC(=O)c3ccc(O)cc3)c(=O)c2c1` the “FP activity change, negative = inhibition” value was inactive: 6.64%.
`COc1cc(NC(=O)c2ccco2)c(OC)cc1NC(=O)Nc1cccc(Cl)c1` was tested, and the Potency was inconclusive: 8.91 µM [quencher, side channel, partial curve].
For `CCCNc1c(NS(=O)(=O)c2ccc(C(C)(C)C)cc2)c(=O)oc2ccccc12`, the Potency was inconclusive: 22.4 µM [fluorescent, side channel, partial curve].
For `O=C(Nc1ccccc1Cl)c1cc(S(=O)(=O)N2CCOCC2)cs1`, the Potency was inconclusive: 25.1 µM [quencher, side channel, single point].
For `COc1ccc(CC(=O)N/N=C\c2cc(Br)c(O)c(Br)c2)cc1`, the Potency was inconclusive: 14.1 µM [quencher, side channel, partial curve].
`COC(=O)N1C2=C(c3ccccc3[C@@H]1CC(=O)Nc1ccc3cc4ccccc4cc3c1)[C@@H]1C(=O)N(c3ccccc3)C(=O)[C@@H]1[C@H](C)C2` was tested, and the Potency was inconclusive: 3.16 µM [quencher, side channel, partial curve].
`COc1ccc(/C=C2\S/C(=N/S(=O)(=O)c3cccs3)NC2=O)cc1` was tested, and the Potency was inconclusive: 35.5 µM [quencher, side channel, single point].
For `COc1ccc(S(=O)(=O)/C(C#N)=C/Nc2cccc(F)c2)cc1`, the Potency was inconclusive: 39.8 µM [fluorescent, side channel, single point].
In the case of `COc1cccc(C(=O)Nc2ccc(C3CC3(Cl)Cl)cc2)c1` (configuration not stated), the Potency is reported as inconclusive: 17.8 µM [quencher, side channel, partial curve].
In the case of `O=C(NCCO)Nc1ccc2nc(-c3ccco3)c(-c3ccco3)nc2c1`, the Potency is reported as inconclusive: 39.8 µM [quencher, single point].
In the case of `COCC(=O)N1CCC[C@@]2(CCN(Cc3cc(C(F)(F)F)cc(C(F)(F)F)c3)C2)C1`, the “FP activity change, negative = inhibition” value is reported as inactive: -10.5%.
For `CCN(CC)CCn1c(=N)n(CC(O)COc2cccc(C)c2)c2ccccc21` (configuration not stated), the Potency was inconclusive: 2.51 µM [fluorescent, side channel, full curve, poor fit].
With `Cc1cc(C)nc(SCC(=O)NC2=NN=C(c3ccc(Br)cc3)CS2)n1` the “FP activity change, negative = inhibition” value was inactive: -1.11%.
`COc1ccc(-c2nc3cnccn3c2NC(C)(C)CC(C)(C)C)cc1O` was tested, and the Potency was inconclusive: 0.794 µM [fluorescent, side channel, full curve, poor fit].
With `Clc1ccc(/C=N/Nc2nnc(-c3ncc[nH]3)c3ccccc23)cc1` the Potency was inconclusive: 25.1 µM [quencher, side channel, partial curve].
In the case of `CC1(OC(=O)CCc2ccccc2)C(=O)C=C2C=C(c3ccsc3)OC=C2C1=O` (configuration not stated), the Potency is reported as inconclusive: 39.8 µM [quencher, side channel, single point].
`COc1ccccc1C1CCN(Cc2cccc3ccccc23)CC1` was tested, and the Potency was inconclusive: 14.1 µM [fluorescent, side channel, partial curve].
In the case of `Cc1ccc(C(=O)N2CCN(c3ccc(C(F)(F)F)cn3)CC2)cc1`, the Potency is reported as inconclusive: 12.6 µM [fluorescent, side channel, partial curve].
In the case of `CCN=c1scc(-c2cccs2)n1/N=C/c1cc(OC)ccc1O`, the Potency is reported as inconclusive: 14.1 µM [quencher, side channel, partial curve].
For `CC(C)(C)NC(=O)CSC(=Nc1ccccc1F)NC#N`, the Potency was inconclusive: 35.5 µM [fluorescent, side channel, single point].
`COc1ccccc1N(CC(=O)Nc1ccc2c(c1)OCCO2)S(C)(=O)=O` was tested, and the “FP activity change, negative = inhibition” value was inactive: 15.5%.
For `O=C1C(Cl)=C(Nc2ccccc2)C(=O)c2ccccc21`, the Potency was inconclusive: 35.5 µM [inhibitor, single point].
